Measured values: a collection of fitness landscapes (doi:10.1126/science.1257360)
Some of the results follow.

B1: PhoQ; a variant is named by its letters at X, in order, P23837 (parent)
chain: MKKLLRLFFPLSLRVRFLLATAAVVLVLSLAYGMVALIGYSVSFDKTTFRLLRGESNLFYTLAKWENNKLHVELPENIDKQSPTMTLIYDENGQLLWAQRDVPWLMKMIQPDWLKSNGFHEIEADVNDTSLLLSGDHSIQQQLQEVREDDDDAEMTHSVAVNVYPATSRMPKLTIVVVDTIPVELKSSYMVWSWFIYVLSANLLLVIPLLWVAAWWSLRPIEALAKEVRELEEHNRELLNPATTRELTSLVRNLNRLLKSERERYDKYRTTLTDLTHSLKTPLXXLQXXLRSLRSEKMSVSDAEPVMLEQISRISQQIGYYLHRASMRGGTLLSRELHPVAPLLDNLTSALNKVYQRKGVNISLDISPEISFVGEQNDFVEVMGNVLDNACKYCLEFVEISARQTDEHLYIVVEDDGPGIPLSKREVIFDRGQRVDTLRPGQGVGLAVAREITEQYEGKIVAGESMLGGARMEVIFGRQHSAPKDE

Variants of: B1
Assay: enrichment ratio after two sorts for PhoP signalling (ratio (wild type AVST 3.29)); higher = more functional
Settings: with PhoP (E. coli)

Point of comparison: GDSM, enrichment ratio 2.79. Against it:
- KSGS — lower, ≤ 0.25
- EFPS — lower, ≤ 0.25
- YMGG — lower, ≤ 0.25
- KSSA — lower, ≤ 0.25
- SIQY — lower, ≤ 0.25
- WLPR — lower, ≤ 0.25
- GKRV — lower, ≤ 0.25
- PPPG — lower, ≤ 0.25
- SCVE — lower, ≤ 0.25
- ATYD — lower, ≤ 0.25
- PLTW — lower, ≤ 0.25
- SPGY — lower, ≤ 0.25
- ARGK — lower, ≤ 0.25
- PMFN — lower, ≤ 0.25
- YDYP — lower, ≤ 0.25
- DTSN — lower, ≤ 0.25
- GIQI — lower, ≤ 0.25
- TMRR — lower, ≤ 0.25
- PSPP — lower, ≤ 0.25
- KHHQ — lower, ≤ 0.25
- INMR — lower, ≤ 0.25
- HRSD — lower, ≤ 0.25
- KGKL — lower, ≤ 0.25
- AQWP — lower, ≤ 0.25
- WIQR — lower, ≤ 0.25
- NPFT — lower, ≤ 0.25
- AMPR — lower, ≤ 0.25
- RRCV — lower, ≤ 0.25
- WFSF — lower, ≤ 0.25
- QAPP — lower, ≤ 0.25
- PEHW — lower, ≤ 0.25
- HTLY — lower, ≤ 0.25
- RGAA — lower, ≤ 0.25
- ELAC — lower, ≤ 0.25
- WYLQ — lower, ≤ 0.25
- TYPW — lower, ≤ 0.25
- IQLF — lower, ≤ 0.25
- SMQY — lower, ≤ 0.25
- HLIL — lower, ≤ 0.25
- SPCH — lower, ≤ 0.25
- TNNM — lower, ≤ 0.25
- PVIL — lower, ≤ 0.25
- YFQA — lower, ≤ 0.25
- QHLA — lower, ≤ 0.25
- KDVD — lower, ≤ 0.25
- KEES — lower, ≤ 0.25
- HFHK — lower, ≤ 0.25
- QLNR — lower, ≤ 0.25
- DKIA — lower, ≤ 0.25
- PWDI — lower, ≤ 0.25
- LGWN — lower, ≤ 0.25
- YTSV — lower, ≤ 0.25
- KPWP — lower, ≤ 0.25
- PVHF — lower, ≤ 0.25
- LGFN — lower, 0.331
- YVWL — lower, 0.577
- SVPQ — lower, ≤ 0.25
- VYPD — lower, ≤ 0.25
- AARA — lower, ≤ 0.25
- NWNI — lower, ≤ 0.25
- GGEF — lower, ≤ 0.25
- WKLV — lower, ≤ 0.25
- MQFA — lower, ≤ 0.25
- VRWC — lower, ≤ 0.25
- FNAQ — lower, ≤ 0.25
- IFQW — lower, ≤ 0.25
- ARCG — lower, ≤ 0.25
- GMYI — lower, ≤ 0.25
- DFIF — lower, ≤ 0.25
- RRTW — lower, ≤ 0.25
- MDFR — lower, ≤ 0.25
- NTWS — lower, ≤ 0.25
- ITPY — lower, ≤ 0.25
- TLHP — lower, ≤ 0.25
- PLPN — lower, ≤ 0.25
- WKHW — lower, ≤ 0.25
- NVQF — lower, ≤ 0.25
- HYHL — lower, ≤ 0.25
- DDCH — lower, ≤ 0.25
- DKGV — lower, ≤ 0.25
- FRNT — lower, ≤ 0.25
- PLNN — lower, ≤ 0.25
- MHYA — lower, ≤ 0.25
- AEMC — higher, 6.24
- VSLL — higher, 9.06
- ENCK — lower, ≤ 0.25
- HRFC — lower, ≤ 0.25
- WYYC — lower, ≤ 0.25
- RQCG — lower, ≤ 0.25
- MHKW — lower, ≤ 0.25
- WLYL — lower, ≤ 0.25
- DCTP — lower, ≤ 0.25
- PCDE — lower, ≤ 0.25
- PFKQ — lower, ≤ 0.25
- GMRM — lower, ≤ 0.25
- KRFQ — lower, ≤ 0.25
- AIPY — lower, ≤ 0.25
- TIYW — lower, ≤ 0.25
- PYDC — lower, ≤ 0.25
- DSWN — lower, ≤ 0.25
- KGHL — lower, ≤ 0.25
- TWNS — lower, ≤ 0.25
- GQCT — higher, 10.8
- MMRQ — lower, ≤ 0.25
- QDFI — lower, ≤ 0.25
- QLWL — lower, ≤ 0.25
- NVDS — lower, ≤ 0.25
- MFRL — lower, ≤ 0.25
- IWIE — lower, ≤ 0.25
- REMR — lower, ≤ 0.25
- RWWY — lower, ≤ 0.25
- TSKN — lower, ≤ 0.25
- LYWF — lower, ≤ 0.25
- AWIM — lower, ≤ 0.25
- LHCN — lower, ≤ 0.25
- AFGR — lower, ≤ 0.25
- NCCW — lower, ≤ 0.25
- SAIF — lower, 1.39
- STMD — higher, 9.32
- WDGQ — lower, ≤ 0.25
- DWPR — lower, ≤ 0.25
- EVKQ — lower, ≤ 0.25
- KTTQ — lower, ≤ 0.25
- LVYI — lower, 0.646
- WHLV — lower, ≤ 0.25
- RCNV — lower, ≤ 0.25
- PFTR — lower, ≤ 0.25
- VPRG — lower, ≤ 0.25
- DSNE — lower, ≤ 0.25
- ITQA — lower, ≤ 0.25
- NEHV — lower, ≤ 0.25
- RIMY — lower, ≤ 0.25
- IVNK — lower, ≤ 0.25
- QYPQ — lower, ≤ 0.25
- GGLR — lower, ≤ 0.25
- RHCM — lower, ≤ 0.25
- VVVN — lower, ≤ 0.25
- VYHW — lower, ≤ 0.25
- HDTE — lower, ≤ 0.25
- RLHK — lower, ≤ 0.25
- ELNH — lower, ≤ 0.25
- ALQP — lower, ≤ 0.25
- TGHY — higher, 3.61
- NATK — lower, ≤ 0.25
- TTRK — lower, ≤ 0.25
- NHKG — lower, ≤ 0.25
- RGHS — lower, ≤ 0.25
- EPAW — lower, ≤ 0.25
- LQER — lower, ≤ 0.25
- WIVW — lower, ≤ 0.25
- TQYL — lower, 1.61
- QKDP — lower, ≤ 0.25
- WCYQ — lower, ≤ 0.25
- DQQP — lower, ≤ 0.25
- LLCE — lower, ≤ 0.25
- TIQN — higher, 5.05
- SMPC — lower, ≤ 0.25
- GTSY — lower, 0.487
- WWYF — lower, ≤ 0.25
- FIAS — lower, ≤ 0.25
- PHDM — lower, ≤ 0.25
- YHIV — lower, ≤ 0.25
- ESEQ — lower, ≤ 0.25
- LSVW — lower, ≤ 0.25
- IWKQ — lower, ≤ 0.25
- LFSP — lower, ≤ 0.25
- RQLF — lower, ≤ 0.25
- PGFD — lower, ≤ 0.25
- QDDN — lower, ≤ 0.25
- SGLH — higher, 7.3
- RVDG — lower, ≤ 0.25
- DLCN — lower, ≤ 0.25
- FWCN — lower, ≤ 0.25
- HDFT — lower, ≤ 0.25
- AAPV — lower, 0.52
- ETGI — lower, ≤ 0.25
- MGLA — lower, 2.09
- HAAR — lower, ≤ 0.25
- FQER — lower, ≤ 0.25
- FGEW — lower, ≤ 0.25
- RCSF — lower, ≤ 0.25
- DICL — lower, ≤ 0.25
- PGIP — lower, ≤ 0.25
- FFHR — lower, ≤ 0.25
- WITM — lower, ≤ 0.25
- IFSK — lower, ≤ 0.25
- FCEK — lower, ≤ 0.25
- STGM — higher, 4.2
- YAGH — lower, ≤ 0.25
- TAMN — higher, 59.7
- GGAF — lower, ≤ 0.25
- MYVN — lower, ≤ 0.25
- FGQS — lower, ≤ 0.25
- AAFW — lower, ≤ 0.25
- HGMH — lower, ≤ 0.25
- SIRA — lower, ≤ 0.25
- DSGT — lower, ≤ 0.25
- QATM — lower, ≤ 0.25
- WYHW — lower, ≤ 0.25
- FSRT — lower, ≤ 0.25
- QNDH — lower, ≤ 0.25
- LFYE — lower, ≤ 0.25
- TCPN — lower, ≤ 0.25
- WFHT — lower, ≤ 0.25
- ASMA — higher, 2.9
- HPHY — lower, ≤ 0.25
- NQLM — higher, 6.38
- EASC — lower, ≤ 0.25
- HRYW — lower, ≤ 0.25
- IYEP — lower, ≤ 0.25
- AKQR — lower, ≤ 0.25
- WSIN — lower, ≤ 0.25
- NPED — lower, ≤ 0.25
- EVSN — lower, ≤ 0.25
- DLHH — lower, ≤ 0.25
- CLFL — lower, ≤ 0.25
- APDW — lower, ≤ 0.25
- VNMG — lower, ≤ 0.25
- FYAY — lower, ≤ 0.25
- ELQS — lower, ≤ 0.25
- FRMR — lower, ≤ 0.25
- IHEN — lower, ≤ 0.25
- GDRE — lower, ≤ 0.25
- VKEN — lower, ≤ 0.25
- ANLC — higher, 22.4
- MYAG — lower, ≤ 0.25
- TCMR — higher, 2.87
- VDQD — lower, ≤ 0.25
- IALR — lower, ≤ 0.25
- FPCC — lower, ≤ 0.25
- FHSS — lower, ≤ 0.25
- SCHH — lower, ≤ 0.25
- QEFP — lower, ≤ 0.25
- AYMM — lower, ≤ 0.25
- YTNP — lower, ≤ 0.25
- LVCC — lower, ≤ 0.25
- DLNE — lower, ≤ 0.25
- FTFY — lower, ≤ 0.25
- RNTN — lower, ≤ 0.25
- RKAR — lower, ≤ 0.25
- TMRL — lower, ≤ 0.25
- FMRK — lower, ≤ 0.25
- RWNV — lower, ≤ 0.25
- EPDW — lower, ≤ 0.25
- PFPL — lower, ≤ 0.25
- WRNI — lower, ≤ 0.25
- AFPM — lower, ≤ 0.25
- PSVP — lower, ≤ 0.25
- HGVH — lower, ≤ 0.25
- TCWC — higher, 8.98
- SQGK — lower, ≤ 0.25
- STQY — lower, 1.13
- FQPC — lower, ≤ 0.25
- YRRG — lower, ≤ 0.25
- HTVF — lower, ≤ 0.25
- LNRM — lower, ≤ 0.25
- VIAN — lower, ≤ 0.25
- HVTI — lower, ≤ 0.25
- PAHT — lower, ≤ 0.25
- LIAT — lower, ≤ 0.25
- HRPR — lower, ≤ 0.25
- HEST — lower, ≤ 0.25
- NWDP — lower, ≤ 0.25
- VFTQ — lower, ≤ 0.25
- VTYR — lower, ≤ 0.25
- KLHQ — lower, ≤ 0.25
- MIWV — lower, ≤ 0.25
- MGGT — higher, 9.95
- QFQP — lower, ≤ 0.25
- PAGE — lower, ≤ 0.25
- WHIM — lower, ≤ 0.25
- FRFY — lower, ≤ 0.25
- CMYV — lower, ≤ 0.25
- WKRQ — lower, ≤ 0.25
- SFWS — lower, ≤ 0.25
- FTFH — lower, ≤ 0.25
- LNVV — lower, ≤ 0.25
- TQPV — lower, ≤ 0.25
- LCMQ — lower, ≤ 0.25
- EGHM — lower, ≤ 0.25
- SLHF — lower, ≤ 0.25
- HYAQ — lower, ≤ 0.25
- MTPY — lower, ≤ 0.25
- HFQI — lower, ≤ 0.25
- PLMT — lower, ≤ 0.25
- VDYF — lower, ≤ 0.25
- SNIK — lower, ≤ 0.25
- WDKM — lower, ≤ 0.25
- MTQM — lower, ≤ 0.25
- YVNP — lower, ≤ 0.25
- TPQV — lower, ≤ 0.25
- MIWC — lower, ≤ 0.25
- RFMQ — lower, ≤ 0.25
- YWSP — lower, ≤ 0.25
- LWDD — lower, ≤ 0.25
- HNWV — lower, ≤ 0.25
- VWHN — lower, ≤ 0.25
- QCFW — lower, ≤ 0.25
- RTHP — lower, ≤ 0.25
- VGVD — lower, ≤ 0.25
- QWWD — lower, ≤ 0.25
- NSFF — lower, ≤ 0.25
- ASEG — lower, ≤ 0.25
- QELQ — lower, ≤ 0.25
- KQID — lower, ≤ 0.25
